The whole screen tested about 310,000 compounds, of which about 2,200 (0.71%) showed an effect of 50% or more. The effect is printed as a negative number. The list shows a part of the results.
Biological target: human ether-à-go-go-related gene (hERG) potassium channel (human, UniProt Q12809)
Test: primary screen, population patch clamp on CHO cells stably expressing hERG

Sequence of human ether-à-go-go-related gene (hERG) potassium channel (Q12809 whole entry, looked up): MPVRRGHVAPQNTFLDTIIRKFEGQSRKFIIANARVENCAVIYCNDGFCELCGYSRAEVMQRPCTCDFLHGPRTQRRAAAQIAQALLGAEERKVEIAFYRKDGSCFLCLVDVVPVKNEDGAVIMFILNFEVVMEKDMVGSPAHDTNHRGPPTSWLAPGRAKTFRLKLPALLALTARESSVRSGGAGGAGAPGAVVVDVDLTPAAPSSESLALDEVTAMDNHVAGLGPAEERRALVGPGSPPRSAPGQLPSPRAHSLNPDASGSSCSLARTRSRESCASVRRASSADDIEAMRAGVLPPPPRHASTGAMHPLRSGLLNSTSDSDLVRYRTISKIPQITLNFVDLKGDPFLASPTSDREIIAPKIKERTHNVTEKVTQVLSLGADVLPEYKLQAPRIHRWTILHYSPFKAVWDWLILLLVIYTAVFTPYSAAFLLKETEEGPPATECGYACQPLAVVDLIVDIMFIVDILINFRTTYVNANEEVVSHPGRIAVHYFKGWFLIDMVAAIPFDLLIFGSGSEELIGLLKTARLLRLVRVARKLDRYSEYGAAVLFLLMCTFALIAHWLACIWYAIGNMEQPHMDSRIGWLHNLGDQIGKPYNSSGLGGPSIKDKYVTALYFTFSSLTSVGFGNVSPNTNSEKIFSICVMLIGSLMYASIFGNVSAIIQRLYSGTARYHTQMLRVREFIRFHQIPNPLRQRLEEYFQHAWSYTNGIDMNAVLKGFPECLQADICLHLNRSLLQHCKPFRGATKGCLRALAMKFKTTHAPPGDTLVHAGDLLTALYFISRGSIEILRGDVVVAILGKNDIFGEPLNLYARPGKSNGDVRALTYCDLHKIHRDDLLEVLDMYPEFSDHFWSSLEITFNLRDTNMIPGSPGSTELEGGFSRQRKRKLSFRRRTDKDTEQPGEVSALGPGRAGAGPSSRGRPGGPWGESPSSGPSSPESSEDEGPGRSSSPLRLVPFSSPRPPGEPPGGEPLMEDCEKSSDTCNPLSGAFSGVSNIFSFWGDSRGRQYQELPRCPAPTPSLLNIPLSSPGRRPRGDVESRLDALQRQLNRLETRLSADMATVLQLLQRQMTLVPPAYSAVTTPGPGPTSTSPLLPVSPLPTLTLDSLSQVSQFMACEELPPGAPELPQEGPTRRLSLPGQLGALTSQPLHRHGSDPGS

SMILES	hERG current change (%, negative = inhibition) at 1uM [%]
CCNC(=S)N1CCC(C(O)(c2ccccc2)c2ccccc2)CC1	15.7
O=C(CNC(=O)c1ccco1)OCC(=O)c1ccc(Cl)cc1	-1.2
Cc1cc[n+](Cc2ccccc2)c(N)c1.[Cl-]	4.97
O=C(O)C(c1ccccc1)C(c1ccccc1)c1ccccc1 (stereo not drawn)	7.25
O=C(O)C(Cc1ccccc1)n1c(=S)[nH]c2ccccc2c1=O (stereo not drawn)	16.6
CCN1CCc2c(OCC(=O)N3CCC(C)CC3)cccc2C1=O	16.4
O=C(CCN1C(=O)/C(=C\c2ccc(F)cc2)SC1=S)Nc1ccc(O)cc1	15.2
O=c1ccc2cc(S(=O)(=O)N3CCN(c4ccccc4F)CC3)ccc2[nH]1	-14.9
CC(=O)C1=C(O)C(=O)N(Cc2ccccc2)C1c1ccco1 (stereo not drawn)	11.2
COCCNC(=O)c1ccc(-n2c(SCc3cc(F)ccc3F)nc3ccccc3c2=O)cc1	14.4
Cc1ccc(S(=O)(=O)Nc2nc3ccc(S(C)(=O)=O)cc3s2)cc1	14
N#CCCN/N=C(/Cc1nc2ccccc2[nH]1)c1ccc(Cl)cc1	9.16
CCCCNS(=O)(=O)c1ccc(OC)c2ncccc12	2.72
O=C(COC(=O)c1c[nH]c(=O)[nH]c1=O)Nc1ccccc1F	7.85
O=C(NCc1ccc(OC(F)(F)F)cc1)C1CC(c2ccccc2C(F)(F)F)=NO1 (stereo not drawn)	3.2
O=C(CSc1ccc2c(c1)OCCO2)Nc1cccnc1	15.2
Cc1ccc(/C=N/NC(=O)Cc2ccc(Cl)cc2)c(O)c1	4.75
CCN1CCCC1CNC(=O)c1cc2c(OC)c(OC)c(OC)cc2[nH]1 (stereo not drawn)	15.2
CCc1nnc(NC(=O)CSc2nnc(-c3ccco3)n2C)s1	1.33

SMILES	hERG current change (%, negative = inhibition) at 1uM [%]
c1ccc2[nH]c(CSc3nccs3)nc2c1	-5.9
CC(C)(C)C1CCC(=NNC(=O)c2ccc(Br)o2)CC1 (stereo not drawn)	15.6
O=[N+]([O-])c1ccc(Nc2nc(N/N=C/c3cccc(F)c3)nc(N3CCCC3)n2)cc1	0.507
CC(C)(C)c1ccc(C(CC(=O)O)NC(=O)Cc2ccc(F)cc2)cc1 (stereo not drawn)	10.9
COc1ccccc1CNC(=O)COC(=O)c1ccc2c(=O)n3c(nc2c1)CCCCC3	10.1
Cc1ccc(S(=O)(=O)N2[C@@H](c3cccc(Cl)c3)C(C(=O)O)=CC[C@H]2c2ccc(Cl)cc2)cc1	14
O=C(NC12CC3CC(CC(C3)C1)C2)C12CC3CC(C1)CC(n1cnc(Cl)n1)(C3)C2	7.58
CN1C(=O)NC(c2ccccc2Cl)C2=C1CC(C)(C)CC2=O (stereo not drawn)	10.4
CCc1ccccc1NC(=O)CSc1nc2ccccc2n1CC(=O)N1CCCC1	9.64
CCOc1ccccc1NC(=O)C1CCCN(C(=O)Nc2ccccc2)C1 (stereo not drawn)	14.1
CCO[C@@H]1OC(C(=O)NCc2nc3ccccc3[nH]2)=C[C@H](c2ccc(C(F)(F)F)cc2)[C@H]1CCCO	16.6
Cc1nnc(-c2ccccc2)nc1N(C)C	6.41
COc1ccc(C(=O)N(CC(=O)Nc2sc(C)c(C)c2C(N)=O)C2CCCC2)cc1	4.92
COc1ccc(NC(C)=O)cc1S(=O)(=O)Nc1ccc2c(c1)OCCO2	4.09
COc1ccccc1OCc1ccc(C(=O)N(C)C)o1	18.9
CC1OC2(OC1C)C(=O)Nc1ccccc12 (stereo not drawn)	6.93
CNC(=O)N1CCN(C(=O)NC)CC1	14.3
CCSc1nnc2c(n1)OC1(CCCC1)Nc1ccccc1-2	7.49
N#CC(=C1CCCC1)c1nc(-c2ccccc2O)cs1	2.91

SMILES	hERG current change (%, negative = inhibition) at 1uM [%]
COc1ccc(/C(C)=C2/SC(=S)N(CCC(=O)O)C2=O)cc1	8.62
O=C1C(=O)N(Cc2ccccc2)C(c2cccc(O)c2)/C1=C(\O)c1ccc2c(c1)OCCO2 (stereo not drawn)	7.58
CN(C)C(=S)NC(=O)C12CC3(C)CC(C)(CC(C)(C3)C1)C2	12.9
O=C(Nc1nc(-c2nc3ccccc3s2)cs1)C1COc2ccccc2O1 (stereo not drawn)	13.3
O=C(NCCS(=O)(=O)N1CCN(c2ccccc2F)CC1)c1ccc2c(c1)OCO2	18.2
CS(=O)(=O)N1CCC(Oc2ccccc2C(=O)N2CCN(CC3CC3)CC2)CC1	12.6
CC(C)C[C@H]1COCCS(=O)(=O)N1Cc1ccc(Cl)c(Cl)c1	10.1
COCCCNC(=O)/C(C#N)=c1\s/c(=C\c2ccccc2OC(F)F)c(=O)n1CCCOC	17.5
O=C1Nc2ccc(S(=O)(=O)N3CCOCC3)c3cccc1c23	12.6
COc1ccc(C2NC(Cc3ccccc3)(C(=O)O)C3C(=O)N(c4ccccc4OC)C(=O)C23)cc1 (stereo not drawn)	14.4
O=C(CSc1nc2c(c(=O)n1-c1ccccc1)SCC2)N1CCOCC1	14.7
Cc1cccc(NS(=O)(=O)c2c(C)[nH]c(C)c2C(=O)N2CCCC2)c1	9.15
COc1ccc([N+](=O)[O-])cc1NC(=S)Nc1ccccc1	3.35
Cc1ccccc1C(=O)NNC1=NCCC1	2.43
CCCN(CCC)C(=O)CSc1nc2ccccc2c(=O)n1CC1COc2ccccc2O1 (stereo not drawn)	-4.64
CC(C)CNC(=O)COC(=O)c1cc(Cl)cc(Cl)c1N	-7.19
COC(=O)c1ccc(CNC(=O)c2ccc3oc(C(C)C)nc3c2)cc1	7.66
CCC(C(=O)OCC(=O)Nc1c(Cl)cccc1Cl)c1ccccc1 (stereo not drawn)	10.8
Cc1[nH]c2c(Cl)cccc2c(=O)c1CN1CCCCCC1	-7.26

Source: PMC4336329 (PLoS ONE, 2015)
